Over roughly 33,000 sequences, “E-score (-0.5 to 0.5)” has its median near -0.056; the highest 2% begin near 0.38. The list shows a part of the results.
target: Stb4 (UniProt P50104); experiment: PBM E-score (8-mer binding enrichment) (E-score (-0.5 to 0.5)); higher = stronger / more preferred TF binding; most listed sequences are background and not binding sites; settings: protein concentration: 200 nM; construct: GST-DNA-binding domain
In short: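 GST-tagged yeast TFs (full-length or DNA-binding domain) were made by PURExpress in vitro transcription/translation and applied at about 100-200 nM to universal all-10-mer Agilent arrays. The arrays were made double-stranded by primer extension, on fresh or once-stripped slides. Bound protein was detected with fluorescent anti-GST, and scans were normalised with masliner. Each ungapped eight-base word, pooled with its reverse complement, received an E-score (modified Wilcoxon-Mann-Whitney statistic) from the Universal PBM Analysis Suite.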

Sequence | PBM E-score
AGCGTCAG | -0.331
ACTTCGTA | -0.111
ACTTACCC | 0.27
AAGCTAAA | -0.0871
CAGTTGCG | -0.0584
ACAGTTTG | -0.12
CGGTCACC | 0.0522
ATTTTGAG | -0.0118
AGCGGGCA | -0.067
CAAATGGA | -0.0648
CAAGCCAG | -0.178
AGCCTATC | 0.00436
ACTGTACG | -0.153
ACACTGGT | -0.266
ATAACGTG | -0.238
AATCCACC | -0.14
CCGTACAA | 0.155
CGAGCCAG | 0.207
CACAAAAA | 0.109
CACTAGCC | 0.236
ATGTGCAA | -0.0852
ATATGAAG | -0.0533
GCTGGTTA | -0.169
CATACCAG | -0.159
AAAGTTAG | -0.00674

Sequence | PBM E-score
ATGTCGCC | 0.0168
AACAGCTC | 0.0753
GCGCCCCA | -0.0809
AGGAAATG | -0.148
TAAGTAAA | -0.035
ACGATTAT | 0.0179
AGCAGGTG | -0.0921
AACCGCCT | 0.115
CAAAGAAA | -0.0442
TTCCGGAA | 0.46
GACTCTCC | -0.159
AAATCCGT | 0.186
GACTGACA | -0.0446
ATTCGGTG | 0.169
AGAGTCCA | -0.321
AAGCTACT | -0.0913
ACCTTGCG | -0.116
CTACCGGC | 0.162
GCTCCATA | -0.229
CGTGCTCC | 0.168
ACCCCGGG | 0.261
ATTATCGG | 0.302
GGGAGTCA | 0.156
GACAGAAC | -0.018
ACCCCATG | 0.00851

Sequence | PBM E-score
CTGCAAGA | -0.169
ATAACCAT | -0.0977
AATGGATA | 0.138
AACTTTCG | 0.132
ACGCCCGC | 0.0103
CAACGATG | -0.211
GATGACAC | 0.00956
GTGGGCCA | 0.043
CATCGTCA | -0.333
GTTCAGCA | -0.19
AGGAAAAG | -0.115
GTCTGTCA | -0.00777
CCCTCTGA | -0.0599
ATCGAGGC | -0.0909
AAAAAGTA | -0.0355
CCCTTTAC | -0.0394
AATCTGCG | 0.0721
AACAGTAA | -0.208
ACTAGAGT | -0.164
ACAGCTCT | -0.323
CTCTAGAG | -0.00064
ACTGTTAA | -0.237
TATATTAA | 0.0622
ACTGCGAC | -0.00264
AAACGAGG | -0.142

Sequence | PBM E-score
ACCGCTAG | -0.295
AACTTGTC | 0.0103
CAGTAGCG | -0.0884
TAACTCGA | 0.0229
CTAGGTAA | -0.147
ACACGTGA | -0.0353
ACCTGGTG | -0.0216
AAAGGAGT | 0.0609
GACTGAAC | -0.0466
CGTCAGGA | -0.157
GATGTACA | -0.0272
GGTCCAAC | 0.0127
AATCGCGG | 0.1
CACCTGCC | 0.00594
ACAGAATC | -0.0638
AGATGTAT | -0.214
CCCAACTC | 0.135
CAAGGTTC | 0.0397
GACAAGAA | -0.0789
AAAACCTT | 0.0361
CATGGGCC | -0.00909
GACGTCGC | -0.283
ACGCATTG | -0.193
ATTAGAAT | -0.0347
AACGCGAT | 0.0057

Sequence | PBM E-score
CTGCAAAA | -0.0685
CGCCAGAG | -0.0752
ATTACAGC | -0.25
CCGAGATC | 0.435
CAGAACCA | -0.271
AAAAGATG | -0.204
GATCGTAA | -0.0241
CATTAGGA | -0.271
GAAGACTC | -0.115
TATTAAAA | 0.0956
GGTCGTAC | 0.0644
GGGTGGAA | -0.0531
ACCGCGGT | 0.0633
AGGTAGAT | -0.00788
CCCTTCCG | 0.363
ATATATCC | 0.332
TACCAGTA | 0.0144
CTATCCTC | -0.0662
ATATCGGC | 0.316
GGAAGTAC | 0.317
GTGCTGAA | -0.176
ACCGACGA | 0.285
GTCCCGAC | 0.376
CACTTAGA | -0.034
GTAACAGA | 0.075

Sequence | PBM E-score
CGTTACAA | -0.151
GGAACGCA | 0.272
ATAACGAG | -0.0944
GGACTCAA | -0.12
CAAGCCCC | 0.0224
GAGCGGCA | 0.164
ACTAGCTG | -0.203
AACCCAAA | -0.14
CAGTGACA | -0.238
ATATAAAT | 0.0789
AGTTAGCG | -0.114
CCCGCGAC | 0.176
TCGCTTAA | -0.168
AAAGTGTA | -0.154
TTGAACAA | -0.0836
AGACCGTA | -0.12
CCCGGCAG | 0.261
CAAGGATC | 0.00882
ATCCGTGA | 0.331
ATCTAAGG | -0.219
ACCTAACG | -0.194
GACCTCGA | -0.0253
ACTAGATC | -0.0752
ATGCGTGG | -0.199
ATTTATCA | 0.0131

Sequence | PBM E-score
AGGCCCGA | 0.233
CTCGTAAA | 0.0334
CATGTTTC | 0.101
TGATTGAA | -0.194
ACGAAAGA | -0.119
CTCACTTA | -0.14
ATGACGCG | -0.0456
CGCCCTAG | -0.0478
CACGTGGA | -0.172
AACTGTCC | 0.0472
CGATTATA | 0.0999
AGCGGTGG | -0.0316
CAAGCTCA | -0.241
AAGTCCTC | -0.0489
AATCCTGT | -0.0567
GTGTTCAA | -0.0835
GAGCCAGC | -0.0917
ACCGAGGT | 0.392
CGAATAAC | 0.141
CCCCCGAC | 0.175
CCTCACCG | -0.0593
CTCTCTTA | -0.243
